Data on 5 compounds can be found in the supplement of paper PMC4604168 (melanoma cell lines).

Molecules are shown by their SMILES. The list shows a part of the results. Most values come without repeats; read them as rough.
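Further: cells treated in 1,536-well plates, then fixed and DAPI-stained, with nuclei counted from automated high-throughput microscope images.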

This assay deals with WM1745. Nature of the assay: cell count relative to DMSO control; melanoma cells; higher = more viable cells. The conditions noted are these: library dose: standard library concentration; 72 h.
`CCN(CC)CCNC(=O)c1c(C)[nH]c(/C=C2\C(=O)Nc3ccc(F)cc32)c1C` [sunitinib] + CC1(C)NC(=O)N(c2ccc([N+](=O)[O-])c(C(F)(F)F)c2)C1=O [nilutamide] (first compound 2 µM, partner dose 5 µM) displayed a cell count of 52.9%.
Compound `Cn1cnc2c(F)c(Nc3ccc(Br)cc3Cl)c(C(=O)NOCCO)cc21` [selumetinib] + CO[C@@H]1[C@H](N(C)C(=O)c2ccccc2)C[C@H]2O[C@]1(C)n1c3ccccc3c3c4c(c5c6ccccc6n2c5c31)C(=O)NC4 [Midostaurin] (first compound 0.075 µM, partner dose 0.4 µM) yielded a cell count of 32.2%.
Under `COc1cc([C@@H]2c3cc4c(cc3[C@@H](O[C@@H]3O[C@@H]5CO[C@@H](C)O[C@H]5[C@H](O)[C@H]3O)[C@H]3COC(=O)[C@H]23)OCO4)cc(OC)c1O` [etoposide] + Cc1cc(N2CCOCC2)cc2[nH]c(-c3c(NC[C@@H](O)c4cccc(Cl)c4)cc[nH]c3=O)nc12 [BMS536924] (first compound 0.1 µM, partner dose 1 µM) stands 54.8%; under `Cn1cnc2c(F)c(Nc3ccc(Br)cc3Cl)c(C(=O)NOCCO)cc21` [selumetinib] + C=CCn1c(=O)c2cnc(Nc3ccc(N4CCN(C)CC4)cc3)nc2n1-c1cccc(C(C)(C)O)n1 [MK1775] (first compound 0.075 µM, partner dose 0.1 µM), 66.2%.
Under `COc1cc([C@@H]2c3cc4c(cc3[C@@H](O[C@@H]3O[C@@H]5CO[C@@H](C)O[C@H]5[C@H](O)[C@H]3O)[C@H]3COC(=O)[C@H]23)OCO4)cc(OC)c1O` [etoposide] + CO[C@@H]1[C@H](N(C)C(=O)c2ccccc2)C[C@H]2O[C@]1(C)n1c3ccccc3c3c4c(c5c6ccccc6n2c5c31)C(=O)NC4 [Midostaurin] (first compound 0.1 µM, partner dose 0.4 µM) stands 40.9%.
